What is called % Inhibition is the drop in the measured response relative to a control, in per cent.

We go through 42 compounds from ChEMBL document CHEMBL4888484, “Replenishing the malaria drug discovery pipeline: Screening and hit evaluation of the MMV Hit Generation Library 1 (HGL1) against asexual blood stage Plasmodium falciparum ,using a nano luciferase reporter read-out” (2022).

Among all 150,000 compounds or so, about 540 (0.36%) showed an effect of 50% or more. This is one part of the list.

This test relates to Plasmodium falciparum. As to the kind of experiment: Primary screen in NF54 nanoGlo assay, in single point, at 2uM, 72h; a lower Z score goes with more inhibition. It is filed as functional, Erythrocyte. To be noted: timepoint 72 hour.
For `Cc1ccc(C)c(N2CCN(C(=O)c3ccc4c(c3)N(Cc3ccccc3)C(=O)CO4)CC2)c1`, the “% Inhibition” value was -13% and the Z score came out at 1.76.

Consider `CN(CC(=O)N1CCCC1)c1ccc(F)cc1`, for which the “% Inhibition” value is -1% and the Z score was 0.17.

Turning to `CC(C)(C)OC(=O)Nc1c(F)cccc1Br`, the “% Inhibition” value is on record as 4% and the Z score is reported as -0.49.

Take `Cc1nnc(CNC(=O)CN2CCN(Cc3ccccc3)CC2)o1`: the “% Inhibition” value is 8% and the Z score is on record as -1.37.

Regarding `C[C@@H](CCn1cncn1)NS(=O)(=O)c1cncc(Cl)c1`, the “% Inhibition” value is recorded as -4% and the Z score was found to be 0.56.

With `O=C(NCC(=O)N1CC[C@H](Nc2ncccn2)[C@@H](O)C1)c1ccccc1`, the “% Inhibition” value is reported as -1% and the Z score was 0.3.

For the compound `O=C1CCC2(CCN(C(=O)c3ccc(O)cc3)CC2)CN1CCc1ccccc1`, the “% Inhibition” value is -4% and the Z score turned out to be 0.73.

On to `O=C(c1ncncc1Cl)N1CC2CCCCC2C1` (centres undefined), for which the “% Inhibition” value is -5% and the Z score is 0.76.

For `C[C@@H](Cc1ccco1)NC(=O)NCc1ccco1`, the “% Inhibition” value is -9% and the Z score turned out to be 1.19.

As to `Cc1n[nH]c(CC(=O)N2CCC[C@]3(CCC(=O)N(C4CCCC4)C3)C2)n1`, the “% Inhibition” value is reported as -18% and the Z score was 2.38.

On to `C[C@]1(C(=O)Nc2ccc(-n3ccc(=O)[nH]3)c(F)c2)CCNC(=O)C1`, for which the “% Inhibition” value is -4% and the Z score is 0.56.

For `Cc1csc(NS(=O)(=O)c2cccc(N(C)C)c2)n1`, the “% Inhibition” value is listed as -12% and the Z score came to 1.21.

`CC(C)N(CC(=O)N(Cc1ccc(F)cc1)Cc1cccs1)C(=O)Cc1cccs1`: the “% Inhibition” value is recorded as -13% and the Z score worked out at 1.18.

As for `Cc1cc(C)cc(-n2cc(C(=O)N3CCc4ccccc4C3)nn2)c1`, the “% Inhibition” value was 29% and the Z score is given as -3.29.

Consider `O[C@H]1CN(C2CCN(c3ccccc3Cl)CC2)C[C@@H]1F`, for which the “% Inhibition” value is on record as -1% and the Z score came to 0.14.

With `COc1cccc(CNC(=O)C[C@H]2COc3ccccc3NC2=O)c1`, the “% Inhibition” value is -3% and the Z score amounted to 0.47.

On to `COCCOc1ncccc1C(=O)Nc1ccnc2ccnn12`, for which the “% Inhibition” value was -12% and the Z score came out at 1.82.

Consider `COc1cc(-c2noc(C3CCCC3)n2)ccc1OCc1ccc(F)cc1F`, for which the “% Inhibition” value is -11% and the Z score turned out to be 1.32.

Turning to `O=C(Nc1ccc2c(c1)cc(C(=O)NCc1ccccc1)n2Cc1cccc(F)c1)c1ccccc1F`, the “% Inhibition” value is recorded as -2% and the Z score is 0.24.

With `COC(=O)N1CCC[C@H]1C(=O)OCc1nnnn1-c1ccccc1`, the “% Inhibition” value is reported as -5% and the Z score is 0.75.

Turning to `Cc1ccc([C@H](CNC(=O)c2cc(-c3ccc(C)c(C)c3)on2)N2CCOCC2)cc1`, the “% Inhibition” value turned out to be 7% and the Z score was -0.9.

Regarding `Cn1nc(C(=O)N2CCCCC3CCCCC32)cc1OC(F)F` (centres undefined), the “% Inhibition” value is -9% and the Z score stood at 1.21.

With `Cc1cc(C(=O)Nc2ccc3[nH]ncc3c2)cs1`, the “% Inhibition” value is reported as -14% and the Z score stood at 1.48.

Turning to `C[C@H]1CCCN(S(=O)(=O)NCc2ccnc(N3CCN(c4ccc(F)cc4)CC3)c2)C1`, the “% Inhibition” value is -7% and the Z score amounted to 1.08.

Turning to `CC(C)Cc1ncc(CNC(=O)N2CCC(C(C)O)C2)s1` (centres undefined), the “% Inhibition” value is recorded as -9% and the Z score is 1.18.

`CC(C)(NC(=O)Cn1cnnn1)c1cccs1`: the “% Inhibition” value is recorded as 1% and the Z score is given as -0.19.

For the compound `CC(=O)N(C)c1nc2ccccc2n(CC(=O)Nc2ccccc2Br)c1=O`, the “% Inhibition” value is listed as -2% and the Z score came to 0.35.

For the compound `O=C(Nc1ccc(-c2cccc(F)c2)c(F)c1)N[C@@]1(CO)CCOC1`, the “% Inhibition” value turned out to be 15% and the Z score was -1.68.

Turning to `CCc1ccc(C(=O)NCCNC(=O)C(C)C)o1`, the “% Inhibition” value is recorded as -7% and the Z score is on record as 1.32.

For the compound `COCCN(C(=O)c1cn(-c2ccc(F)cc2)nn1)c1ccc(C#N)cc1`, the “% Inhibition” value is -8% and the Z score was 0.85.

Take `Cc1nc(C(=O)N2CCN(C)Cc3ccccc32)cs1`: the “% Inhibition” value is -19% and the Z score is given as 1.61.

For the compound `CCc1nc(C)c(C(=O)NCCc2nc3cc(C)ccc3[nH]2)o1`, the “% Inhibition” value amounted to 2% and the Z score is listed as -0.31.

Take `COc1ccc([C@H]2CC(=O)Nc3nc(N4CCCCC4)sc32)cc1OC`: the “% Inhibition” value is -28% and the Z score amounted to 3.65.

Take `Cc1ccc([C@@H](C)CCNCc2ccc3nsnc3c2)o1`: the “% Inhibition” value turned out to be 2% and the Z score is recorded as -0.45.

For `O=C(O)C1CCCC(C(=O)N2CCc3ccccc3C2)C1` (centres undefined), the “% Inhibition” value is -13% and the Z score came out at 1.55.

Turning to `CC(C)(C)C1CNC(=O)C1C(=O)Nc1ccc(C(F)(F)F)cc1` (centres undefined), the “% Inhibition” value is reported as -3% and the Z score stood at 0.53.

Regarding `CCC/C=C/c1nccc(N2CCC[C@H](O)C2)n1`, the “% Inhibition” value was -9% and the Z score is reported as 1.16.

Turning to `Cc1cc2c(N3CCCC(C(=O)NC(C)c4ccc(C)c(C)c4)C3)nccc2s1` (centres undefined), the “% Inhibition” value is -7% and the Z score was 1.2.

In the case of `C=CCCN1C(=O)N[C@@](C)(CCC)C1=O`, the “% Inhibition” value was -7% and the Z score came to 0.79.

`C[C@H](NC(=O)CCc1ccccc1Cl)c1ccncc1`: the “% Inhibition” value was determined as 1% and the Z score is given as -0.14.

`C[C@H](OC(=O)C1=CCCCCC1)C(N)=O`: the “% Inhibition” value is reported as -2% and the Z score worked out at 0.26.

Consider `Cc1ccc2[nH]c3c(N4CCC5(CC4)OCCO5)ncnc3c2c1`, for which the “% Inhibition” value is given as -2% and the Z score was 0.35.
